Publication PMC12136788
The other results are listed elsewhere or left out.

T1: UNK ZnF1-3 (human, UniProt Q9C0B0 31-174)
T1 sequence: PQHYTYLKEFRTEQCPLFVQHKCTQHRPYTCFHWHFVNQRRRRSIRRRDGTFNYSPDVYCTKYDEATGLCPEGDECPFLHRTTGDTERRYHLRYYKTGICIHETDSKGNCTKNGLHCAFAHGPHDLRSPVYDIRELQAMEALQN

B1: chr12:32871593:32871594:+_ENSG00000087470_ENST00000452533|hu_mus|motif|central (ssRNA)
RNA: GGGAGUUCUACAGUCCGACGAUCCAAUACAUCCAUGGCAUCAGUACCCGCAUCCAUGAGAUCAAGUUUAGUGAUUACAGCGGGAGUUCUGCGCCCAUCUGGAUCUACCUCUCUGGAAAUCUUGAGUGCUUCUGAUGUUGCCAUCAACAGAGGAUUGAGCAUCA
B2: 84155827_84155947_371_CDS_ENSMUSG00000045658_ENSMUST00000168574|mouse|control|control (ssRNA)
RNA: GGGAGUUCUACAGUCCGACGAUCUGCCUUCAUCAGGGGUGUGGUGGUGCACAGCUCAAUGGCUUCCGGCUCAUGGAAGAGGACUGCUGGUAUAGGUUCCUUUUUCAGUGUUAGGACAUUCAACUUAGACUUCAGCAUGGUCUGCAACAGAGGAUUGAGCAUCA
B3: 33854873_33854993_5922_3pUTR_ENSMUSG00000042197_ENSMUST00000044455|mouse|control|control (ssRNA)
RNA: GGGAGUUCUACAGUCCGACGAUCUGGGGCAAAAUAUGCCUCACAUUAAAGAAAAAGGUUUUUGUUAUUGCAAUCUUCUACUUCUAAAGAGAUCUAACACAUAAUUUCAAGCCUUCAGCAGAAUCCCAAUUAACUUCAAGAACACAACAGAGGAUUGAGCAUCA
B4: chr14:21319500:21319501:-_ENSMUSG00000021816_ENSMUST00000161445|mus_mus|motif|central (ssRNA)
RNA: GGGAGUUCUACAGUCCGACGAUCGAGCUGUACUCCAGGGCAUGAGGGAAGCAGGCCACCAAAGUAAAGGGAAAUACCAAACGGCAGUGGUAAUCAGUACAGGUCAGUCACUGUAAAAUUAGCACAUGGUUCCAUUUAGUUUAACAACAGAGGAUUGAGCAUCA
B5: 94664534_94664654_4104_CDS_ENSMUSG00000040785_ENSMUST00000117648|mouse|control|control (ssRNA)
RNA: GGGAGUUCUACAGUCCGACGAUCGCAGAAUCCUGUGACCAAGUGUGAUUGAGCCCAGUAUGUUGGUUUGGCUUCUUCAGGAGCUGGCGUGGGGGAAGGAGAAGCAUCCUCACAGAGUGGUGUAGGAGAGUCAGGAGAGGCCACCAACAGAGGAUUGAGCAUCA
B6: chr10:112764417:112764418:+_ENSG00000108061_ENST00000369452|hu_hu|FALSE|FALSE (ssRNA)
RNA: GGGAGUUCUACAGUCCGACGAUCGAUGGUAGAAAACUGAGAUGGACCACCCACUGGAUACAACUGGAAGCAAUUUCUAGCUAAGGUCAAACUAUUCAGUUUCACAAGACUUGAUAAAAGACUCUCUGGUAAAGUAGAAAUGUUCAACAGAGGAUUGAGCAUCA
B7: chr10:33190432:33190433:-_ENSG00000150093_ENST00000302278|hu_mus|hu_hu_hu_mus_True|98_108 (ssRNA)
RNA: GGGAGUUCUACAGUCCGACGAUCUACAUUUUCAAAACCUGCACAUGAAUAAAACCCUGGCCACAGAGCCCCAAAACUACCCUACUGUGACUAAGAUGCUGCUGCUGUGAGCUUGGUGUUGCAAAAUCCGCCUGAGUAGGAUUCCAACAGAGGAUUGAGCAUCA
B8: chr17:64801638:64801639:+_ENSG00000154229_ENST00000413366|hu_mus|hu_hu_hu_mus_False|78_88 (ssRNA)
RNA: GGGAGUUCUACAGUCCGACGAUCUAUAUAUAUAUAUACAUAUGUACACAUAUGUAGUAAGAGCCUAGUUAAACGUGUAAAGUAGCCAUUCAUUUUUAAAAUUACAUCUACAUUAAAAAAUUAAUAUAUCUGAUAGAGUGCCAGCAACAGAGGAUUGAGCAUCA
B9: chr10:24632779:24632780:+_ENSMUSG00000019984_ENSMUST00000092646|mus_mus|FALSE|FALSE (ssRNA)
RNA: GGGAGUUCUACAGUCCGACGAUCUAGGGAUUUGAAUAAAGUGAUAUGAAUAUGAACAACAUGUAACUUACUUAUCUCUUAGAGACAAAACAUAGACAAGGAGAGGGAUUCAGUAUUUGAAUCAGAAUAAACCAAUCUGAACAUCAACAGAGGAUUGAGCAUCA
B10: chr11:10818680:10818681:-_ENSG00000110321_ENST00000525681|hu_mus|motif|central (ssRNA)
RNA: GGGAGUUCUACAGUCCGACGAUCUAUAUAAAAUCAGGGCAUGAACAUGACUUGAUAAAUUAAGUAGACUUAAUUUCAAUACGGUAAUAAGAGGGACCAAUUCAAAUUCUCACCAUUUGUUUCACACCCACAAAAACCACUUCACAACAGAGGAUUGAGCAUCA
B11: 74654493_74654613_2214_CDS_ENSG00000113161_ENST00000287936|human|control|control (ssRNA)
RNA: GGGAGUUCUACAGUCCGACGAUCAACAGAUUUUCCUCUUCCCUCUAUCCAAUUUAUAGCAGCAGGUUUCUUGUCAGUACAAUAGUUACCACUAACGGCUAGAAUCUGCAUUUCAGGGAAAUACUCGUGAAGUUUUGAAAGUGCCAACAGAGGAUUGAGCAUCA
B12: chr3:151873496:151873497:+_ENSMUSG00000028034_ENSMUST00000166984|mus_mus|motif|central (ssRNA)
RNA: GGGAGUUCUACAGUCCGACGAUCCGCUACAGCACACGCUGCCGUUUCCUCGCGGAGGGAGGCGCCGCUCUCGGUUAACUGCGGAGAAAGGAAGAAGAUGGCGGCCGUCGAGGCUCUAUCACAUUCUUGCACGACCAUCGUGCCCAACAGAGGAUUGAGCAUCA
B13: chr14:78183846:78183847:+_ENSG00000119705_ENST00000557342|hu_hu|hu_hu_hu_mus_False|8_88 (ssRNA)
RNA: GGGAGUUCUACAGUCCGACGAUCUCUCAGAAAUCUUUCUUCAUCAGCAUCAUCAGAUCCGUGCAAAGCCUUUGCUCUUUGAGCUUGAACGUGGAUCUAUGGGAGGGAAAGCACUGUCAGAAAAGGUUGUAGUGCAUUUAAAGACAACAGAGGAUUGAGCAUCA
B14: chr17:45761549:45761550:+_ENSG00000108424_ENST00000290158|hu_mus|motif|central (ssRNA)
RNA: GGGAGUUCUACAGUCCGACGAUCGCUCAGGCAGGGAGGGGAUGAAAGGAGCACGGGAGAAACCUAAGCCAAUACCUUUGACGGCAAUGGAAAUGGAAAUGGGAAUGAGGGUCUUGUGUUUCUUCCACACUACCAGGAAGCAAUCAACAGAGGAUUGAGCAUCA

biological target: T1, UNK ZnF1-3; assay: nsRBNS (natural sequence RNA bind-n-seq); RBNS binding buffer (assumed for nsRBNS): 25 mM Tris pH 7.5, 150 mM KCl, 3 mM MgCl2, 0.01% Triton X-100, 500 ug/ml BSA, 20 U/ml SUPERase-In, 4 C; UNK is unkempt and MSI1 is Musashi-1; names of the RNAs are library labels; protein concentration not given here; high values mean tight binding

| Binder | binding signal [enrichment R] |
| --- | --- |
| B1 | 1.07 |
| B2 | 0.983 |
| B3 | 1.06 |
| B4 | 1.58 |
| B5 | 2.12 |
| B6 | 1.16 |
| B7 | 1.28 |
| B8 | 2.24 |
| B9 | 0.991 |
| B10 | 1.46 |
| B11 | 1.08 |
| B12 | 0.902 |
| B13 | 1.39 |
| B14 | 1.52 |
